Experimental data as given in PubChem BioAssay AID588591 (National Center for Advancing Translational Sciences (NCATS), 2011).
Screen size: about 390,000 compounds; about 4,700 (1.2%) were called active. Inconclusive results, whose numbers are uncertain, are shown with a selection of clear calls. Calls follow the shape of the dose curve; as a rule, active = well fitted inhibition curve with a large enough effect; inconclusive = small, poorly fitted or top-dose-only effect, or another doubt; inactive = no such curve, though single readings can be large or run the other way. A potency beside an inconclusive call is a rough fit, not a confirmed value.

target: DNA polymerase eta (Homo sapiens) (UniProt Q9Y253); assay: qHTS for Inhibitors of Polymerase Eta; settings: recombinant Pol eta, fluorescent DNA replication assay; series mostly up to 114 µM; activity change, negative = inhibition: at the top concentration
UniProt Q9Y253, sequence (Q9Y253 whole entry, looked up): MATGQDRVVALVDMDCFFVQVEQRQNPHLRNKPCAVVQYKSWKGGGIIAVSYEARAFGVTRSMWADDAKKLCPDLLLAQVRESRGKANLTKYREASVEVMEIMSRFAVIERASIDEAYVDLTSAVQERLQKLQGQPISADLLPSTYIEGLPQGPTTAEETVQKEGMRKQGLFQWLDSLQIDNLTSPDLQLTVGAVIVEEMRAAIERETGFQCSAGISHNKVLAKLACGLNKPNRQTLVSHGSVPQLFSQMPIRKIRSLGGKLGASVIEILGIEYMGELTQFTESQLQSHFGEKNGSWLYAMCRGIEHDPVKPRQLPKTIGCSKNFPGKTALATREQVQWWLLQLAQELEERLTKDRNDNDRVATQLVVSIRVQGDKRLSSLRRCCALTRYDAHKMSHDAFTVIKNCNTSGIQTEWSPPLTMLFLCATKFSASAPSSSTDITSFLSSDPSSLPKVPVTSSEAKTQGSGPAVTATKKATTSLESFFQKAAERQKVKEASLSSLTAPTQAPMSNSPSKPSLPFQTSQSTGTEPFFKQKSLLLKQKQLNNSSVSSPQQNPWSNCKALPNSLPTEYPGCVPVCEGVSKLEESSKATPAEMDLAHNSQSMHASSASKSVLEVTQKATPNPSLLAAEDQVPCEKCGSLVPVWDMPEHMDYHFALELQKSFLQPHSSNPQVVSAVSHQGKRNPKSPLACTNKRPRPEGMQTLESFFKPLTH
In short: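 Fluorescent replication assay: 50 nM final substrate added after a 15 min room-temperature compound preincubation with 10 nM enzyme. Signal taken at 0 min and again at 10 min.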
% is scaled to controls: 0 for no effect and ±100 for the full control effect; potency is read from the fitted curve at half-maximal effect; tags tell the direction and shape of the fitted curve.

Compound | activity change, negative = inhibition | Potency
COC(=O)C1=C(c2cccc(OCc3ccccc3)c2)C[C@@H]2CC[C@H]1N2C(=O)NCc1ccc(C(C)(C)C)cc1 | inactive: -5.17% | 
COC(=O)C1=C(c2c(C)noc2C)C[C@@H]2CC[C@H]1N2C(=O)NCCOc1ccc(OC)cc1 | inactive: -9.3% | 
COc1ccc(C(=O)Nc2ccc3oc(-c4ccc(F)cc4Cl)nc3c2)cc1 |  | inconclusive: 79.4 µM [inhibitor, partial curve]
Cc1cccc(OCC(=O)N2CCN(Cc3ccncc3)CC2)c1 |  | inconclusive: 35.5 µM [inhibitor, single point]
CC(=O)[C@H]1CCC2C3CC[C@H]4C[C@H](O)CC[C@]4(C)C3CC[C@@]21C (some centres not stated) |  | inconclusive: 44.7 µM [inhibitor, single point]
CCOC(=O)c1c(N)n(Cc2ccco2)c2nc3ccccc3nc12 |  | inconclusive: 22.4 µM [inhibitor, single point]
Cc1ccc(-n2cc(CNC(C)Cc3cnccn3)c(-c3cccc(C)c3)n2)cc1 (configuration not stated) |  | inconclusive: 28.2 µM [inhibitor, partial curve, poor fit]
Cc1ccc(N2C(=O)NC(=O)/C(=C\c3cn(CC(=O)O)c4ccccc34)C2=O)cc1 |  | inconclusive: 79.4 µM [inhibitor, partial curve]
Cc1ccc(NC(=O)COC(=O)/C=C/c2ccco2)cc1S(=O)(=O)N(C)C |  | active: 15.8 µM
NS(=O)(=O)c1ccc(CCNC(=O)c2ccc(Cl)c(S(=O)(=O)N3CCCCC3)c2)cc1 |  | inconclusive: 89.1 µM [inhibitor, single point]
O=C1NC(=O)C(=Cc2ccc(Oc3ccc([N+](=O)[O-])cc3)cc2)C(=O)N1 |  | inconclusive: 79.4 µM [inhibitor, partial curve, poor fit]
Cc1ccc(N2C(=O)NC(=O)/C(=C\c3cc(C)n(-c4sc5c(c4C#N)CCCC5)c3C)C2=O)cc1 |  | active: 20 µM
Cc1ncc(CN2CCCC(C(=O)c3ccc(C(C)(C)C)cc3)C2)s1 (configuration not stated) |  | inconclusive: 89.1 µM [inhibitor, partial curve, poor fit]
Cc1cc(OCC(=O)N2CCN(CCc3ccncc3)CC2)cc(C)c1Cl | inactive: -10.9% | 
COC(=O)C1=C(c2cc3ccccc3o2)C[C@@H]2CC[C@H]1N2C(=O)NCc1ccc(C(F)(F)F)cc1 |  | inconclusive: 89.1 µM [inhibitor, partial curve, poor fit]
CCCCC(C)C(OC(=O)CC(CC(=O)O)C(=O)O)C(CC(C)CC(O)CCCCC(O)CC(O)C(C)N)OC(=O)CC(CC(=O)O)C(=O)O (configuration not stated) |  | inconclusive: 20 µM [inhibitor, full curve]
Cc1ccc(S(=O)(=O)N2CCN(Cc3ccsc3)CC2)cc1 |  | inconclusive: 89.1 µM [inhibitor, partial curve, poor fit]
Cc1ccc2cc(C=C(C#N)C#N)c(Cl)nc2c1 |  | inconclusive: 17.8 µM [inhibitor, full curve]
Cn1cccc1/C=C1/C(=O)NC(=O)N(Cc2ccc(F)cc2)C1=O |  | active: 79.4 µM
N#CC(C#N)=Cc1cc(O)c(O)c(O)c1 |  | active: 2.24 µM
CCCN1CCC(NC2CCC(O)CC2)CC1 (configuration not stated) | inactive: -24.6% | 
CC1CCN(C(CC(=O)c2ccccc2)C(=O)c2ccccc2)CC1 (configuration not stated) | inactive: -16.4% | 
CSc1nc(N)c(N=Nc2ccc([As](=O)(O)O)cc2)c(=O)[nH]1 |  | active: 50.1 µM

Compound | activity change, negative = inhibition | Potency
Cc1ccc(/C=C2/C(=O)NC(=O)N(CCc3ccc(F)cc3)C2=O)o1 |  | inconclusive: 35.5 µM [inhibitor, partial curve, poor fit]
CCCCCn1c(NC(=O)c2ccco2)c(C(=O)OCC)c2nc3ccccc3nc21 |  | active: 22.4 µM
COC(=O)C1=C(c2ccc(F)cc2OCc2ccccc2)C[C@@H]2CC[C@H]1N2C(=O)NCc1ccco1 |  | active: 44.7 µM
CC12CCCCC1(O)[N+](=O)C1=C(CCCC1)N2[O-] (configuration not stated) |  | inconclusive: 25.1 µM [inhibitor, single point]
COc1ccc(-n2c(O)c(/C=C/C=Nc3ccccc3)c(=O)[nH]c2=O)cc1 |  | active: 20 µM
O=C1NC(=O)C2(Cc3ccccc3N3CCCC32)C(=O)N1Cc1ccccc1 (configuration not stated) |  | inconclusive: 35.5 µM [inhibitor, single point]
COC(=O)C1=C(c2cccc(OCc3ccccc3)c2)C[C@@H]2CC[C@H]1N2C(=O)NCc1ccc([N+](=O)[O-])cc1 |  | inconclusive: 100 µM [inhibitor, partial curve, poor fit]
CCOc1cc2c(cc1OCC)-n1cccc1C(c1cccc(OCC)c1O)NC2 (configuration not stated) |  | inconclusive: 79.4 µM [inhibitor, partial curve, poor fit]
O=C(NCc1ccc2c(c1)CCN2C(=O)c1ccccc1)Nc1cccc(C(F)(F)F)c1 |  | inconclusive: 112 µM [inhibitor, partial curve, poor fit]
O=c1[nH]c2ccccc2c(=O)n1-c1ccc(Cl)cc1Cl |  | inconclusive: 20 µM [inhibitor, partial curve, poor fit]
COc1ccc(NC(=O)c2cccn(Cc3ccc(Cl)cc3)c2=O)c(OC)c1 |  | inconclusive: 89.1 µM [inhibitor, single point]
CCCCCCC(C)(C)c1ccc([C@@H]2C[C@H](O)CC[C@H]2CCCO)c(O)c1 |  | inconclusive: 39.8 µM [inhibitor, single point]
O=C(CCl)Nc1nccs1 | inactive: -3.6% | 
Cc1ccc(-n2c(C)cc(/C=C3\C(=O)NC(=O)N(C)C3=O)c2C)cc1C |  | active: 11.2 µM
Cc1cc(C(=O)OC(C)C(=O)Nc2ccccc2)c(C)n1C1CC1 (configuration not stated) | inactive: -7.6% | 
CCN(CC)P(=O)(Oc1cccc(C)c1)N(CC)CC |  | inconclusive: 89.1 µM [inhibitor, partial curve, poor fit]
Cc1ccc(/C=C2/C(=O)NC(=O)N(CCc3ccc(F)cc3)C2=O)s1 | inactive: 2.14% | 
Cc1ccc2scc(N3CCN(C)CC3)c(=O)c2c1 | inactive: -6.06% | 
CC(C)N=C(NC(C)C)N1CC1 | inactive: -4.5% | 
CC(C)c1ccc(C(c2c(O)c3ccccc3oc2=O)c2c(O)c3ccccc3oc2=O)cc1 |  | active: 22.4 µM
COCCNC(=O)c1c(NC(=O)c2ccco2)n(Cc2ccccc2)c2nc3ccccc3nc12 |  | inconclusive: 28.2 µM [inhibitor, partial curve, poor fit]
N=C1/C(=C/c2ccc(OC(=O)c3ccco3)cc2)C(=O)N=C2SC=CN12 |  | inconclusive: 63.1 µM [inhibitor, partial curve, poor fit]
CC(C)(C)c1cc(C=C(C#N)C#N)cc(C(C)(C)C)c1O |  | inactive

Compound | activity change, negative = inhibition | Potency
CCn1nc(-c2ccccc2)nc2c(=O)n(C)c(=O)nc1-2 |  | active: 0.794 µM
CCCCN1C(=O)/C(=C/C=C/c2ccco2)C(=O)NC1=S |  | active: 3.55 µM
Cc1cc(C(C#N)c2ccc(Cl)cc2)c(Cl)cc1NC(=O)c1cc(I)cc(I)c1O (configuration not stated) |  | active: 50.1 µM
CCN(CC)c1ccc(/C=C2/C(=O)NC(=O)N(Cc3ccco3)C2=O)cc1 |  | active: 10 µM
Cc1cc(/C=C2\C(=O)NC(=O)N(Cc3ccco3)C2=O)c(C)n1-c1ccc(C(=O)O)cc1 |  | active: 17.8 µM
CCOC(=O)c1ccc(NC(=O)N2CC3CC(C2)c2cccc(=O)n2C3)cc1 (configuration not stated) |  | inconclusive: 79.4 µM [inhibitor, partial curve, poor fit]
C=C(C)[C@@H]1CC[C@]2(C(=O)O)CC[C@]3(C)C(CCC4[C@@]5(C)CC[C@H](O)C(C)(C)C5CC[C@]43C)C12 (some centres not stated) |  | inconclusive: 3.98 µM [inhibitor, full curve, poor fit]
O=c1c2ccccc2nc(/C=C\c2cccc(Br)c2)n1-c1ccc(O)cc1 |  | inconclusive: 79.4 µM [inhibitor, partial curve, poor fit]
CN1CCN2c3ccc(N)cc3CC3(C(=O)NC(=O)NC3=O)C2C1 (configuration not stated) | inactive: -13.9% | 
CCOC(=O)CC(SP1(=S)OCC2(CCCCC2)CO1)C(=O)OCC (configuration not stated) |  | inconclusive: 28.2 µM [inhibitor, partial curve, poor fit]
C[N+]12CCC(CC1)C(=C(c1ccccc1)c1ccccc1)C2 | inactive: -11.8% | 
Cc1ccc(OP(=O)(NC(C)c2ccccc2)Oc2ccc(C)cc2)cc1 (configuration not stated) |  | inconclusive: 79.4 µM [inhibitor, partial curve, poor fit]
CC1CCCCN1CCNS(=O)(=O)c1ccc2c(c1)oc(=O)n2C (configuration not stated) |  | inconclusive: 28.2 µM [inhibitor, partial curve, poor fit]
O=Cc1c(C(=O)O)n(Cc2ccc(Cl)cc2)c2ccccc12 |  | active: 50.1 µM
CCCCCn1c(=O)c(C(=O)NCc2ccncc2)c(O)c2ccccc21 |  | inconclusive: 79.4 µM [inhibitor, partial curve, poor fit]
C[N+]1(C)C2CCC1CC(OC(=O)c1ccco1)C2 (configuration not stated) | inactive: -8.58% | 
C[C@]12CC[C@H](O)CC1=CCC1C2CC[C@]2(C)C(=O)[C@H](Br)CC12 (some centres not stated) |  | inconclusive: 28.2 µM [inhibitor, partial curve, poor fit]
COC1C(C)OC(OC2CC(C)(O)Cc3cc4c(c(O)c32)C(=O)c2c(O)cc3c(c2C4=O)OC2OC3(C)C(O)C(N(C)C)C2O)C(OC)C1(C)OC (configuration not stated) |  | inconclusive: 5.01 µM [inhibitor, full curve, poor fit]
O=C1NC(=S)N(c2ccc(F)cc2)C(=O)/C1=C/c1ccccc1O | inactive: -9.03% | 
Cc1ccnc(-n2c(-c3ccco3)nc3ccccc3c2=O)c1 | inactive: -11% | 
O=C1Nc2ccccc2C1Cc1nc2ccccc2c(=O)n1-c1ccccc1 (configuration not stated) |  | inconclusive: 79.4 µM [inhibitor, partial curve, poor fit]
